The chains are these.
B1: TPR 5TU (parent)
chain: GGAUCUUCUCGAUCUAACAAAAAAGACAAAUCUGCCACAAAGCUUGAGAGCAUCUUCGGAUGCAGAGGCGGCAGCCUUCGGUGGCGCGAUAGCGCCAACGUUCUCAACUAUGACACGCAAAACGCGUGCUCCGUUGAAUGGAGUUUAUCAUG

Variants at the background level are over-represented here.

The data set covers variants of B1. Nature of the data set: polymerase ribozyme fitness, log enrichment relative to wild type (log ratio); higher = more active; in vitro selection for triplet polymerase activity. The gist of the method: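 Each subunit of a heterodimeric triplet polymerase ribozyme was mutagenized into a library by PCR, transcribed, and subjected to one round of in vitro selection, run in triplicate. Libraries were annealed with a biotinylated primer, the partner subunit and triplets, incubated frozen at −7 °C, and extended constructs were gel-excised, captured on streptavidin beads and recovered by RT-PCR. Input and output libraries were sequenced on Illumina, keeping genotypes with ≥10 input reads and ≥1 read per output. Fitness is log base 2 of genotype enrichment divided by wild-type enrichment, from inverse-variance-weighted replicate averages.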
Consider GGAUCUUCUCGAUCUAACAAAAAAGACAAAUCUGCCACAAAGCUUCCGAGCAUCUUUGGAUGCAGAGGCGGCAGCCUUCGGUGGCGCGAUAGCGCCAAGGUUCUCAACUAUGACACGCAAAACGCGUGCUACGUUGAAUGGAGUUUAUCAUG, for which the “polymerase ribozyme fitness (log ratio)” value is at most -4.2.

Consider GGAUCUUCUCGAUCUAACAAAAAAGACAAAUCUGCCACAAAGCUUAAGAGCAUCUUCGGAUGCAGAGGCGGCAGCCUUCGGUGGCGCGAUUGCACCAAAGUUCUUAACUAUGACACGCACAACGCGUGCUCCGUUGACUGUAGUUUAUCAUG, for which the “polymerase ribozyme fitness (log ratio)” value was at most -4.2.

Take GGAUCUUCUCGAUCUAACAAAAAAGACAAAUCUGCCACAAAGCUUAAGAGCAUGUUCGGAUGCAGGGGCGGCAGCCUUCGGUGGCGCGAUAGCGUCAACGUUCUCAACUAUGACACGCAAAACGCGUGCUCCGUUGAAUGGUGUUUAUCAUG: the “polymerase ribozyme fitness (log ratio)” value is at most -4.2.

As for GGAUCUUCUCGAUCUAACAAAAAAGACAAAUCUGCCACAAAGCUUCAGAGCAUCUUCGGGUGCAGAGGCGGCAGCCUUCGGUGGCGCGAUUGCGCCAACGGUCUCAACUAUGACACCCAAAACGCGUGCUCCGUUGAAUGGAGUACAUCAUG, the “polymerase ribozyme fitness (log ratio)” value was at most -4.2.

With GGAUCUUCUCGAUCUAACAAAAAAGACAAAUCUGCCACAAAGCUUAAGAGCAUCUUCGGAUGCAGAGGCGGCAGCCUUAGGUGGCGCGAUUGCGCCAACGUUCUGAACUAUGACACGCAAAACGCGUGCUCCUUUGAAUGAAAUUUAUCAUG, the “polymerase ribozyme fitness (log ratio)” value is at most -4.2.

With GGAUCUUCUCGAUCUAACAAAAAAGACAAAUCUGCCACAAAGCUUCUGAGCAUCAUCGGAUGCAGAGGCGGCAGCCUUCGGUGGAGCGAUAGCGCAAAGGUUCUCAACUAUGACACGCAAAACGCGUGCUCCGUUGAAUGGAAUUUAUCAUG, the “polymerase ribozyme fitness (log ratio)” value is at most -4.2.

For the variant GGAUCUUCUCGAUCUAACAAAAAAGACAAAUCUGCCACAAAGCUUCAGAGCAUCUUCACAUGCAGAGGCGGCAGCCUUCGGUGGCGCGAUAGCGUCAAUGUUCUCAUCUAUGACACGCAAAACGCGUGCUCUGUUGAAUGGAGUAUAUCAUG, the “polymerase ribozyme fitness (log ratio)” value is at most -4.2.

In the case of GGAUCUUCUCGAUCUAACAAAAAAGACAAAUCUGCCACAAAGCUUUAGAGCAUCUUCGGCUGCAGAGGCGGCAGCCUUCGGUGGCGCGAUAGAGCCUACGUUCUCAACUAUGACACGCAAAACGCGUGCUCCGUUGCACGGAGAUUAUCAGG, the “polymerase ribozyme fitness (log ratio)” value is at most -4.2.

Consider GGAUCUUCUCGAUCUAACAAAAAAGACAAAUCUGCCACAAAGCUUCAGAGCAUCUUUGGAUGCAGAGGCGGCGGCCUUCGGUGGGGCGAUAGCACCAACGUUCUCAACUAUGACACGCAAAACGCGUGCUCCGUUGAAUGGAGUUUAUCAUU, for which the “polymerase ribozyme fitness (log ratio)” value is at most -4.2.

As to GGAUCUUCUCGAUCUAACAAAAAAGACAAAUCUGCCACAAAGCUUAAGAGCAUAUUCGGAUGCAGAGGCGGCAGCGUUCGGUGGCGCGAUAGCGCCAAGGUUCUCAACUAUGACACGCAAAACGCGUGAUCCGUCGAGUGGAGUUUAUCAUG, the “polymerase ribozyme fitness (log ratio)” value is at most -4.2.

Regarding GGAUCUUCUCGAUCUAACAAAAAAGACAAAUCUGCCACAAAGCUUAAGAGCAUCUUCGGAUGCAGAGGCGGCAGAUUUCGGUGGCGCGAUAGCAGCAACGUUCUCAACUAUGACACGCAAAACGCGUGCUCCGUUGAAUGGAGUUUUUCAUG, the “polymerase ribozyme fitness (log ratio)” value is at most -4.2.

For the variant GGAUCUUCUCGAUCUAACAAAAAAGACAAAUCUGCCACAAAGCUUAAGAGCAUCUUCGGAUGCAGAGGCGGCAGCCUUCGGUGGCGCGAUAGCGCCAACAUUCUGAACUAUGACACGCAAAACGCGUGCUCCCUUGAAUGGAGUUUAUCAUU, the “polymerase ribozyme fitness (log ratio)” value was at most -4.2.

As for GGAUCUUCUCGAUCUAACAAAAAAGACAAAUCUGCCACAAAGCUUCAGAGCAUCUUCGGAUGCAGAGGCGGCAGCCUUGGGUGGCGCGAUAGCGCCAACGUUCUCAACUAUGACACGCAAAACGCGUGCUCCGUUGAAUGGAGUUUAUCAUG, the “polymerase ribozyme fitness (log ratio)” value is at most -4.2.

As for GGAUCUUCUCGAUCUAACAAAAAAGACAAAUCUGCCACAAAGCUUAAGAGCAUCUUCGGAUGCAGAGGCGGCAGCCUUCGGUGGCGCGAUAGCGCCAACGUUCUCAACUAUGACACGCAGAGCACGUGCUCCGUUGAAUGGAGUUUCUAAUG, the “polymerase ribozyme fitness (log ratio)” value was at most -4.2.

As for GGAUCUUCUCGAUCUAACAAAAAAGACAAAUCUGCCACAAAGCUUAAGAGCAUCUUCGGAUGCAGAGGCGGCAGCCUUCGGAGGCGCGUUAGGGCCAACUUUCUCAACUAUGACACGCAAAACGCGUGCUCCGUUGAAUGGAGUUUAUCAUG, the “polymerase ribozyme fitness (log ratio)” value is at most -4.2.

On to GGAUCUUCUCGAUCUAACAAAAAAGACAAAUCUGCCACAAAGCUUUAGAGCCUCUUCGGAUGCAGAGGCGACAGCCUUCGGUGGAGCGAUAGCGCGAACGUUCUCAACUAUGACACGCAAAACGCGUGCUCCGUUGAAUGGAGUUUAUUAUG, for which the “polymerase ribozyme fitness (log ratio)” value is at most -4.2.

Regarding GGAUCUUCUCGAUCUAACAAAAAAGACAAAUCUGCCACAAAGCUUAAGAGCAUCUUCGGAUGCAGAGGCGGCAGCAUUCGGUGGCGCGAUAACGCCAACGUUCUCAACUAUGACACGCAAAACGCAUGCUCCGUUGAAUGACGUUUAUCGUG, the “polymerase ribozyme fitness (log ratio)” value is at most -4.2.

GGAUCUUCUCGAUCUAACAAAAAAGACAAAUCUGCCACAAAGCUUAAGAGCAUCUUCGGAUGCAGAGGCGGCAGCCUUCGGUGGCGGGAUAGCGCCAACGUUCUCAACUAUGACACGCAAAACGCGUGCUCCGUUGAAUGGAGUUUAUCAUG: the “polymerase ribozyme fitness (log ratio)” value was at most -4.2.

For the variant GGAUCUUCUCGAUCUAACAAAAAAGACAAAUCUGCCACAAAGCUUAAGAGCAUCUUCGGAGGCAGAGGCGGCAGCCUUCGGUGGCGCGAUAGCGCCUACGUGUUCAACUGUGACACGCAACACGGGUGCUCCGUUGAAUGGAGUUUAUCAUG, the “polymerase ribozyme fitness (log ratio)” value is at most -4.2.

For the origin of these results see the RNAGym collection of RNA variant scans (doi:10.1073/pnas.2313332121).
